Experimental data reported in a collection of fitness landscapes (doi:10.1016/j.celrep.2020.107928).
The full ranking holds about 81,000 sequences; the median of “one-hybrid fitness for binding parS DNA” is about -0.17, and the highest 2% start at about 0.51. Some of the results follow.

B1: Caulobacter ParB omega fusion; a variant is named by its letters at X, in order, B8GW30 (parent)
chain: MESVVVGEPGMSEGRRGLGRGLSALLGEVDAAPAQAPGEQLGGSREAPIEILQRNPDQPRRTFREEDLEDLSNSIREKGVLQPILVRPSPDTAGEYQIVAGERAWRAAQRAGLKTVPIMVRELDDLAVLEIGIIENVQRADLNVLEEALSYKVLMEKFERTQENIAQTIGKSXSHVANXMRLLXLPDEVQSYLVSGELTAXHARAIAAAADPVALAKQIIEGGLSVRETEALARKAPNLSAGKSKGGRPPRVKDTDTQALESDLSSVLGLDVSIDHRGSTGTLTITYATLEQLDDLCNRLTRGI

Variants of: B1
Assay: one-hybrid fitness for binding parS DNA (scaled: cognate 1, non-cognate 0); higher = stronger binding
Conditions: with parS DNA site
Procedure, shortened: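 Values were rescaled so that cognate is 1 and non-cognate is 0. Each is a fitness, the log change in a variant's read ratio to wild type from Illumina reads of plasmids before and after selection, with three replicate libraries pooled and variants under 10 reads dropped. Selection of the Caulobacter ParB libraries, four specificity codons randomised, used E. coli USO with a HIS3 reporter, site 19 bp from the promoter, on M9-minus-histidine with 0.1 mM IPTG and 5 mM 3-AT for 48 hours at 37°C.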
EHHI was tested, and the “one-hybrid fitness for binding parS DNA” value was at most 0.2. For KHTT, the “one-hybrid fitness for binding parS DNA” value was at most 0.2. For ANDG, the “one-hybrid fitness for binding parS DNA” value was at most 0.2. LPGV was tested, and the “one-hybrid fitness for binding parS DNA” value was at most 0.2. SMPI was tested, and the “one-hybrid fitness for binding parS DNA” value was at most 0.2. DGPG was tested, and the “one-hybrid fitness for binding parS DNA” value was at most 0.2. With REPW the “one-hybrid fitness for binding parS DNA” value was at most 0.2. For PARR, the “one-hybrid fitness for binding parS DNA” value was at most 0.2. With RVRA the “one-hybrid fitness for binding parS DNA” value was 0.689. With IKGW the “one-hybrid fitness for binding parS DNA” value was at most 0.2. MGLG was tested, and the “one-hybrid fitness for binding parS DNA” value was at most 0.2. In the case of CSLD, the “one-hybrid fitness for binding parS DNA” value is reported as at most 0.2. In the case of QMHT, the “one-hybrid fitness for binding parS DNA” value is reported as at most 0.2. With VELS the “one-hybrid fitness for binding parS DNA” value was at most 0.2. For MTDP, the “one-hybrid fitness for binding parS DNA” value was at most 0.2. In the case of GHGC, the “one-hybrid fitness for binding parS DNA” value is reported as at most 0.2. In the case of SHLG, the “one-hybrid fitness for binding parS DNA” value is reported as at most 0.2. For MCHV, the “one-hybrid fitness for binding parS DNA” value was at most 0.2. IAEG was tested, and the “one-hybrid fitness for binding parS DNA” value was at most 0.2. LTVL was tested, and the “one-hybrid fitness for binding parS DNA” value was at most 0.2. With TFLC the “one-hybrid fitness for binding parS DNA” value was at most 0.2. PFKH was tested, and the “one-hybrid fitness for binding parS DNA” value was at most 0.2. In the case of RDRA, the “one-hybrid fitness for binding parS DNA” value is reported as at most 0.2. PWFR was tested, and the “one-hybrid fitness for binding parS DNA” value was at most 0.2. HYNK was tested, and the “one-hybrid fitness for binding parS DNA” value was at most 0.2. For RLAR, the “one-hybrid fitness for binding parS DNA” value was at most 0.2. With LIRI the “one-hybrid fitness for binding parS DNA” value was at most 0.2. QPDT was tested, and the “one-hybrid fitness for binding parS DNA” value was at most 0.2. With WLCS the “one-hybrid fitness for binding parS DNA” value was at most 0.2. QMTG was tested, and the “one-hybrid fitness for binding parS DNA” value was at most 0.2. For GPGK, the “one-hybrid fitness for binding parS DNA” value was at most 0.2. With MKFG the “one-hybrid fitness for binding parS DNA” value was at most 0.2. In the case of RQAC, the “one-hybrid fitness for binding parS DNA” value is reported as 0.947. For SRDN, the “one-hybrid fitness for binding parS DNA” value was at most 0.2. With YITG the “one-hybrid fitness for binding parS DNA” value was at most 0.2. ERRC was tested, and the “one-hybrid fitness for binding parS DNA” value was at most 0.2. With QTFQ the “one-hybrid fitness for binding parS DNA” value was at most 0.2. RGYN was tested, and the “one-hybrid fitness for binding parS DNA” value was at most 0.2. For VGLY, the “one-hybrid fitness for binding parS DNA” value was at most 0.2. THDW was tested, and the “one-hybrid fitness for binding parS DNA” value was at most 0.2. With PYKR the “one-hybrid fitness for binding parS DNA” value was at most 0.2. For TYRN, the “one-hybrid fitness for binding parS DNA” value was at most 0.2. For VKTY, the “one-hybrid fitness for binding parS DNA” value was at most 0.2. With PCRY the “one-hybrid fitness for binding parS DNA” value was at most 0.2. RTPT was tested, and the “one-hybrid fitness for binding parS DNA” value was 0.558. HVAI was tested, and the “one-hybrid fitness for binding parS DNA” value was at most 0.2. With ESLH the “one-hybrid fitness for binding parS DNA” value was at most 0.2. In the case of VDAC, the “one-hybrid fitness for binding parS DNA” value is reported as at most 0.2. For ESWS, the “one-hybrid fitness for binding parS DNA” value was at most 0.2. QACS was tested, and the “one-hybrid fitness for binding parS DNA” value was at most 0.2. For ICFG, the “one-hybrid fitness for binding parS DNA” value was at most 0.2. In the case of PTRA, the “one-hybrid fitness for binding parS DNA” value is reported as at most 0.2. With APCR the “one-hybrid fitness for binding parS DNA” value was at most 0.2. RYTL was tested, and the “one-hybrid fitness for binding parS DNA” value was at most 0.2. In the case of VRHC, the “one-hybrid fitness for binding parS DNA” value is reported as at most 0.2. YHVR was tested, and the “one-hybrid fitness for binding parS DNA” value was at most 0.2. VNPL was tested, and the “one-hybrid fitness for binding parS DNA” value was at most 0.2. For NNTD, the “one-hybrid fitness for binding parS DNA” value was at most 0.2. In the case of MTPS, the “one-hybrid fitness for binding parS DNA” value is reported as at most 0.2. With RDPL the “one-hybrid fitness for binding parS DNA” value was at most 0.2. YGCG was tested, and the “one-hybrid fitness for binding parS DNA” value was at most 0.2. With PTLS the “one-hybrid fitness for binding parS DNA” value was at most 0.2. With TARW the “one-hybrid fitness for binding parS DNA” value was at most 0.2. With RDQA the “one-hybrid fitness for binding parS DNA” value was at most 0.2. With DKNL the “one-hybrid fitness for binding parS DNA” value was at most 0.2. For YHNQ, the “one-hybrid fitness for binding parS DNA” value was at most 0.2. QMRA was tested, and the “one-hybrid fitness for binding parS DNA” value was at most 0.2. For RCMP, the “one-hybrid fitness for binding parS DNA” value was 0.232. For YCLV, the “one-hybrid fitness for binding parS DNA” value was at most 0.2. With HRQC the “one-hybrid fitness for binding parS DNA” value was 0.257. CVTK was tested, and the “one-hybrid fitness for binding parS DNA” value was at most 0.2. In the case of GSSY, the “one-hybrid fitness for binding parS DNA” value is reported as at most 0.2. With YEQT the “one-hybrid fitness for binding parS DNA” value was at most 0.2. For PKTV, the “one-hybrid fitness for binding parS DNA” value was at most 0.2. In the case of KTLW, the “one-hybrid fitness for binding parS DNA” value is reported as at most 0.2. KEAS was tested, and the “one-hybrid fitness for binding parS DNA” value was at most 0.2. QVPL was tested, and the “one-hybrid fitness for binding parS DNA” value was at most 0.2. For DNAT, the “one-hybrid fitness for binding parS DNA” value was at most 0.2. In the case of AHYA, the “one-hybrid fitness for binding parS DNA” value is reported as at most 0.2. In the case of AHYR, the “one-hybrid fitness for binding parS DNA” value is reported as at most 0.2. With MSDR the “one-hybrid fitness for binding parS DNA” value was at most 0.2. With RYPA the “one-hybrid fitness for binding parS DNA” value was 0.212. In the case of NKGV, the “one-hybrid fitness for binding parS DNA” value is reported as at most 0.2. For NLYS, the “one-hybrid fitness for binding parS DNA” value was at most 0.2. With KDQT the “one-hybrid fitness for binding parS DNA” value was at most 0.2. With PCNE the “one-hybrid fitness for binding parS DNA” value was at most 0.2. With DSWN the “one-hybrid fitness for binding parS DNA” value was at most 0.2. In the case of KYNE, the “one-hybrid fitness for binding parS DNA” value is reported as at most 0.2. In the case of PVME, the “one-hybrid fitness for binding parS DNA” value is reported as at most 0.2. In the case of GRMK, the “one-hybrid fitness for binding parS DNA” value is reported as at most 0.2. With GCWL the “one-hybrid fitness for binding parS DNA” value was at most 0.2. IRHI was tested, and the “one-hybrid fitness for binding parS DNA” value was at most 0.2. In the case of FRCN, the “one-hybrid fitness for binding parS DNA” value is reported as at most 0.2. With YECR the “one-hybrid fitness for binding parS DNA” value was at most 0.2. VNMN was tested, and the “one-hybrid fitness for binding parS DNA” value was at most 0.2. In the case of KVNN, the “one-hybrid fitness for binding parS DNA” value is reported as at most 0.2. NFLI was tested, and the “one-hybrid fitness for binding parS DNA” value was at most 0.2. In the case of ARIV, the “one-hybrid fitness for binding parS DNA” value is reported as at most 0.2. QLYL was tested, and the “one-hybrid fitness for binding parS DNA” value was at most 0.2. RIFF was tested, and the “one-hybrid fitness for binding parS DNA” value was 0.297. RIHC was tested, and the “one-hybrid fitness for binding parS DNA” value was 0.977. In the case of SQDA, the “one-hybrid fitness for binding parS DNA” value is reported as at most 0.2. In the case of PGHG, the “one-hybrid fitness for binding parS DNA” value is reported as at most 0.2. In the case of PMVY, the “one-hybrid fitness for binding parS DNA” value is reported as at most 0.2. In the case of QHAS, the “one-hybrid fitness for binding parS DNA” value is reported as at most 0.2. MFTG was tested, and the “one-hybrid fitness for binding parS DNA” value was at most 0.2. For KLRG, the “one-hybrid fitness for binding parS DNA” value was at most 0.2. In the case of CQDR, the “one-hybrid fitness for binding parS DNA” value is reported as at most 0.2. PKGV was tested, and the “one-hybrid fitness for binding parS DNA” value was at most 0.2. For RNIE, the “one-hybrid fitness for binding parS DNA” value was at most 0.2. For ARKE, the “one-hybrid fitness for binding parS DNA” value was at most 0.2. With ILVT the “one-hybrid fitness for binding parS DNA” value was at most 0.2. HFTR was tested, and the “one-hybrid fitness for binding parS DNA” value was at most 0.2. In the case of NENG, the “one-hybrid fitness for binding parS DNA” value is reported as at most 0.2. For ARLE, the “one-hybrid fitness for binding parS DNA” value was at most 0.2. NEIG was tested, and the “one-hybrid fitness for binding parS DNA” value was at most 0.2. With AAND the “one-hybrid fitness for binding parS DNA” value was at most 0.2. In the case of MMNT, the “one-hybrid fitness for binding parS DNA” value is reported as at most 0.2. With LVRF the “one-hybrid fitness for binding parS DNA” value was at most 0.2. With IMYR the “one-hybrid fitness for binding parS DNA” value was at most 0.2. With IFES the “one-hybrid fitness for binding parS DNA” value was at most 0.2. In the case of QTCW, the “one-hybrid fitness for binding parS DNA” value is reported as at most 0.2. For PFYL, the “one-hybrid fitness for binding parS DNA” value was at most 0.2. In the case of DFTW, the “one-hybrid fitness for binding parS DNA” value is reported as at most 0.2. In the case of IRRH, the “one-hybrid fitness for binding parS DNA” value is reported as at most 0.2. In the case of KLFV, the “one-hybrid fitness for binding parS DNA” value is reported as at most 0.2. PSLK was tested, and the “one-hybrid fitness for binding parS DNA” value was at most 0.2. With QVRT the “one-hybrid fitness for binding parS DNA” value was at most 0.2. With YPRV the “one-hybrid fitness for binding parS DNA” value was at most 0.2. NLRY was tested, and the “one-hybrid fitness for binding parS DNA” value was at most 0.2. NPRG was tested, and the “one-hybrid fitness for binding parS DNA” value was at most 0.2. With TSHY the “one-hybrid fitness for binding parS DNA” value was at most 0.2. In the case of VSTT, the “one-hybrid fitness for binding parS DNA” value is reported as at most 0.2. For VVFM, the “one-hybrid fitness for binding parS DNA” value was at most 0.2. With GPKI the “one-hybrid fitness for binding parS DNA” value was at most 0.2. In the case of QSTC, the “one-hybrid fitness for binding parS DNA” value is reported as at most 0.2. For YIGC, the “one-hybrid fitness for binding parS DNA” value was at most 0.2. For RRMN, the “one-hybrid fitness for binding parS DNA” value was 0.4. PLEP was tested, and the “one-hybrid fitness for binding parS DNA” value was at most 0.2. In the case of SEYG, the “one-hybrid fitness for binding parS DNA” value is reported as at most 0.2. In the case of QAVG, the “one-hybrid fitness for binding parS DNA” value is reported as at most 0.2. TRCW was tested, and the “one-hybrid fitness for binding parS DNA” value was at most 0.2. With ELKL the “one-hybrid fitness for binding parS DNA” value was at most 0.2. In the case of VVKK, the “one-hybrid fitness for binding parS DNA” value is reported as 0.226. PGGG was tested, and the “one-hybrid fitness for binding parS DNA” value was at most 0.2. CMSL was tested, and the “one-hybrid fitness for binding parS DNA” value was at most 0.2. PQSN was tested, and the “one-hybrid fitness for binding parS DNA” value was at most 0.2. For TSSN, the “one-hybrid fitness for binding parS DNA” value was at most 0.2. For GSHS, the “one-hybrid fitness for binding parS DNA” value was at most 0.2. For FWIS, the “one-hybrid fitness for binding parS DNA” value was at most 0.2. In the case of REGM, the “one-hybrid fitness for binding parS DNA” value is reported as at most 0.2. For LDCE, the “one-hybrid fitness for binding parS DNA” value was at most 0.2. MGAY was tested, and the “one-hybrid fitness for binding parS DNA” value was at most 0.2.
